In PubChem BioAssay AID686979 (National Center for Advancing Translational Sciences (NCATS), 2013):
The whole screen tested about 420,000 compounds, of which about 50,000 (12%) were called active. Inconclusive results, whose numbers are uncertain, are shown with a selection of clear calls. Calls come from the whole dose curve; as a rule, active = well fitted inhibition curve with a large enough effect; inconclusive = small, poorly fitted or top-dose-only effect; inactive = flat fitted curve, though single readings scatter. Potencies of inconclusive entries are left out as doubtful fits.

Experiment: qHTS for Inhibitors of human tyrosyl-DNA phosphodiesterase 1 (TDP1): qHTS in cells in presence of CPT; note: nearly all actives have a fitted effect of over 55% in size
Details: chicken DT40 Tdp1-/-;hTDP1 cells + 20 nM CPT, ATP luminescence, 48 h; activity change, negative = growth inhibition: at 46.2 µM (top of the series)
How it was run: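 Chicken DT40 Tdp1-/- cells complemented with human TDP1, 400 cells/well, exposed to compounds plus 20 nM camptothecin for at least 48 h at 37 C; viability read as ATP content by CellTiter-Glo luminescence.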
% is set by controls: 0 for no effect and ±100 for the full control effect; potency is the fitted concentration of half-maximal effect; tags give direction and shape of the fitted curve.

Row | Compound | Potency | activity change, negative = growth inhibition
1 | CCCN(C(=O)c1ccc(N(C)S(=O)(=O)c2ccc(C)cc2)cc1)C1CCS(=O)(=O)C1 (configuration not stated) | inconclusive [inhibitor, single point] | –
2 | CC(=O)c1cccc(OCc2cc(C(=O)N3CC4C[C@@H]5CC3C[C@H](C4)C5)no2)c1 | active: 2.59 µM | –
3 | CN(C)c1ccc(/C=C/c2c3ccccc3cc[n+]2[O-])cc1 | inconclusive [inhibitor, single point] | –
4 | Nc1ncnc2c1ncn2[C@@H]1O[C@H](CNCc2ccc(OCc3ccccc3)cc2)[C@@H](O)[C@H]1O | active: 18.4 µM | –
5 | O=C1C=CC(=O)N1CCCCCCCCCCN1C(=O)C=CC1=O | active: 0.58 µM | –
6 | COC(=O)c1cc2c(N)c(C(=O)c3ccccc3)sc2nc1C(OC)OC | inconclusive [inhibitor, single point] | –
7 | CC(C)NC(=O)c1ccc(CSCc2ccccc2Cl)o1 | inconclusive [inhibitor, single point] | –
8 | Cc1nnc(SCC(=O)N(CC(C)C)c2c(N)n(Cc3ccccc3)c(=O)[nH]c2=O)n1N | inactive | –
9 | O=C(Nc1ccc(S(=O)(=O)N2CCC(c3nc4ccccc4s3)CC2)cc1)c1ccc(F)cc1 | inactive | –
10 | C[C@@H]1CN([C@@H](C)CO)C(=O)Cc2cc(NC(=O)Nc3ccc(C(F)(F)F)cc3)ccc2O[C@@H]1CN(C)S(=O)(=O)c1ccc(Cl)cc1 | inconclusive [inhibitor, single point] | –
11 | CCC1CCCCN1CCCNC(=O)c1cn(CC)c2ccc(S(=O)(=O)N3CCc4ccccc4C3)cc2c1=O (configuration not stated) | inconclusive [inhibitor, single point] | –
12 | CCCCc1c(-c2ccccc2Br)ncn1CCc1ccccc1OC | active: 14.6 µM | –
13 | Cc1nc(C)c(-c2nnc(-c3ccccc3Cl)o2)cc1C(=O)NN | inactive | –
14 | C[C@]12CCC(=O)C[C@@H]1CC[C@@H]1[C@@H]2CC[C@]2(C)[C@@H](C(=O)COC(=O)CCC(=O)O)CC[C@@H]12 | inconclusive [inhibitor, single point] | –
15 | O=C(CSc1nnc(-c2ccc([N+](=O)[O-])cc2)o1)Nc1ccccn1 | inactive | –
16 | COc1ccc(NC(=O)c2sc3nc(C)c(C(=O)Nc4ccc(C)cc4C)c(-c4ccc(Cl)cc4)c3c2N)cc1 | inactive | –
17 | COc1ccccc1CCn1c(=O)cnc2cncnc21 | active: 4.61 µM | –
18 | Cn1c(NCc2cccnc2)nc2cc(-c3cccc(C(F)(F)F)c3)sc2c1=O | inconclusive [inhibitor, single point] | –
19 | CCCCOc1ccc(C(=O)NCCCC(=O)N2CCCCC2)cc1 | inconclusive [inhibitor, full curve, poor fit] | –
20 | COc1ccc(OC)c(NC(=O)CSC2=Nc3ccccc3C3=NC(CC(=O)NCc4ccco4)C(=O)N23)c1 (configuration not stated) | inconclusive [inhibitor, partial curve] | –
21 | O=S(=O)(c1ccc2c(c1)OCO2)N1CCN(c2nc(-c3cccs3)nc3ccccc23)CC1 | inconclusive [inhibitor, partial curve] | –
22 | CCCC(CCC)c1nnc(NC(=O)c2ccco2)s1 | – | inconclusive: -33% [inhibitor]
23 | Cc1ccc(S(=O)(=O)N2[C@H](c3ccc(Cl)cc3)CC(=O)[C@@H]3CN(S(=O)(=O)c4ccccc4C)[C@H](c4ccc(Cl)cc4)C[C@@H]32)cc1 | – | inconclusive: -33.2% [inhibitor]
24 | COc1ccc(NC(=O)CC2C(=O)N(c3ccc(OC)cc3)C(=O)N2C(C)C)cc1 (configuration not stated) | inactive | –

Row | Compound | Potency | activity change, negative = growth inhibition
25 | COc1ccccc1CC(=O)N1CCN(c2ccc([N+](=O)[O-])cc2)CC1 | active: 14.6 µM | –
26 | O=C(NCCN1CCOCC1)C(=O)NCC1OCCN1S(=O)(=O)c1ccccc1 (configuration not stated) | inactive | –
27 | CCOc1ccc(N2CC(C(=O)Nc3ccccc3C(=O)NC3CC3)CC2=O)cc1 (configuration not stated) | inactive | –
28 | O=C(CS(=O)(=O)c1ccc(F)cc1)Nc1nnc(-c2cccs2)o1 | inactive | –
29 | CC(C)Cn1nc(C(=O)Nc2cccc(C(=O)NC3CC3)c2)c2ccccc2c1=O | inconclusive [inhibitor, single point] | –
30 | NC(=O)c1nsc(C(=O)N(Cc2ccc(F)cc2)C(C(=O)NCC2CCCO2)c2ccc(F)cc2)c1N (configuration not stated) | inconclusive [inhibitor, single point] | –
31 | Cc1nc2ncnn2c(Nc2ccc3c(c2)OCCO3)c1C | – | inconclusive: -30% [inhibitor]
32 | Cc1ccc(C)c(NCCCCC(=O)O)c1 | inactive | –
33 | O=C(Nc1ccccc1)N1CCC(C(=O)N2CCN(Cc3ccccc3)CC2)CC1 | inactive | –
34 | COc1ccc(Cn2cc(CN3CC(N4CCN(Cc5ccccc5F)CC4)CS3(=O)=O)nn2)cc1 (configuration not stated) | inconclusive [inhibitor, partial curve] | –
35 | CCOc1ccccc1Nc1nnc(SCC(=O)NC2CCS(=O)(=O)C2)s1 (configuration not stated) | inactive | –
36 | Cc1ccc(C)c(NC(=S)Nc2ncccc2C)c1 | inconclusive [inhibitor, single point] | –
37 | Clc1ccc2nc(C3CCN(Cc4nnnn4C4CCCCC4)CC3)[nH]c2c1 | inconclusive [inhibitor, single point] | –
38 | CC1CCN(CCCCOc2ccc(Cl)cc2)CC1 | inactive | –
39 | CCOCCOC(NC(=O)c1ccccc1)(C(F)(F)F)C(F)(F)F | inactive | –
40 | CCOC(=O)c1cccc(NC(=O)c2c(NCc3ccccc3)[nH]c(=O)[nH]c2=O)c1 | inconclusive [inhibitor, single point] | –
41 | Cc1cccc(NS(=O)(=O)c2ccc(C)c(C(=O)NCC(c3cccs3)N3CCOCC3)c2)c1 (configuration not stated) | inconclusive [inhibitor, partial curve, poor fit] | –
42 | CCCCN(CC(=O)NC1CCCC1)C(=O)C(=O)Nc1ccc2c(c1)OCCO2 | inactive | –
43 | Cc1c(C(=O)N(Cc2cccc(Br)c2)C2CCS(=O)(=O)C2)oc2ccc(F)cc12 (configuration not stated) | inconclusive [inhibitor, single point] | –
44 | CCOc1ccc(NC(=O)CN(C)S(=O)(=O)c2ccc3c(c2)c(=O)n(C)c(=O)n3C)cc1 | inactive | –
45 | Cc1ccc(C(=O)NCC(c2cccs2)S(=O)(=O)c2cccs2)cc1C (configuration not stated) | active: 11.6 µM | –
46 | CCOC(=O)N1CCN(c2ncnc3c2[nH]c2ccc(F)cc23)CC1 | active: 6.51 µM | –
47 | O=C(Cc1ccccc1)Nc1cccc(S(=O)(=O)N2CCCCCC2)c1 | inactive | –
48 | CCN(C(=O)c1nn(-c2ccc(OC)c(Cl)c2)c(=O)c2c1c1ccccc1n2C)c1cc(OC)ccc1OC | inconclusive [inhibitor, single point] | –

Row | Compound | Potency | activity change, negative = growth inhibition
49 | CC(C)(CO)NCC(O)Cn1cc(C=O)c2ccccc21 (configuration not stated) | inactive | –
50 | S=C(c1ccc(-c2ccc(Cl)c(Cl)c2)o1)N1CCOCC1 | inconclusive [inhibitor, single point] | –
51 | CCN1/C(=C\C=C2\C(=O)N(c3ccccc3)C(=S)N2C)Sc2ccccc21 | inconclusive [inhibitor, partial curve, poor fit] | –
52 | COc1ccc(N2CCN(C(=O)Cn3ncc4c3-c3cc(C)ccc3OC4)CC2)cc1 | inactive | –
53 | CN(C)c1ncnc2c1ncn2CCn1cnc2c(N(C)C)ncnc21 | inconclusive [inhibitor, single point] | –
54 | COC(=O)CCn1c(C)cc(C(=O)COc2ccccc2C(N)=O)c1C | active: 20.6 µM | –
55 | CC1=CC(=C(C#N)c2nc3ccccc3s2)C=C(C)N1Cc1ccco1 | inconclusive [inhibitor, single point] | –
56 | CC(C)(C)CC(=O)NCc1cccs1 | inactive | –
57 | COc1c(Br)cc(Br)cc1C(=O)Nc1ccccc1N1CCCC1 | inconclusive [inhibitor, single point] | –
58 | CC1CN(c2cc(=O)n(-c3ccccc3)c(=O)[nH]2)CC(C)O1 (configuration not stated) | inactive | –
59 | Cc1cccc2c1CC(C)(C)NC2=C(C#N)C#N | inactive | –
60 | O=C(NCCC1=CCCCC1)C1CCC(CNc2c(N3CCCCC3)c(=O)c2=O)CC1 (configuration not stated) | inconclusive [inhibitor, single point] | –
61 | O=C(c1ccc([N+](=O)[O-])o1)N1CCCCCC1 | – | inconclusive: -33% [inhibitor]
62 | COCc1cc(=O)[nH]c(N2CCN(Cc3ccc4c(c3)OCO4)CC2)n1 | inactive | –
63 | c1cc2c(cc1Nc1nc(-c3ccc4c(c3)OCO4)cs1)OCCO2 | – | inconclusive: -31.9% [inhibitor]
64 | COc1ccc([N+](=O)[O-])c(OC)c1C(=O)NC(=O)Nc1nc(C)nc(C)n1 | inactive | –
65 | CCCCOc1cccc(C(=O)N(Cc2ccco2)C2CCS(=O)(=O)C2)c1 (configuration not stated) | inconclusive [inhibitor, partial curve] | –
66 | COc1cccc(-c2cc(C(F)(F)F)nc(-n3nc(C)c(Br)c3C)n2)c1 | inconclusive [inhibitor, single point] | –
67 | CCN(CC)C(=O)C1=C(C)N(Cc2ccc(F)cc2)C(=O)C(CC(=O)NCC2CCCCC2)C1 (configuration not stated) | inconclusive [inhibitor, single point] | –
68 | Brc1cccc(OCCCNC2CCCC2)c1 | inconclusive [inhibitor, single point] | –
69 | CCN(CC(=O)Nc1cc(Cl)ccc1C)C(=O)c1ccc(N2CCCC2=O)cc1 | inactive | –
70 | O=C1C2C(C(=O)N1c1ccncc1)C1C=CC2C12CC2 (configuration not stated) | inconclusive [inhibitor, partial curve, poor fit] | –
71 | COc1ccc(OC)c(CNS(=O)(=O)c2c(C)nc3scc(C)n3c2=O)c1 | inactive | –
72 | O=C(Nc1ccccc1)c1cc(-c2ccccc2Cl)no1 | active: 16.4 µM | –
